Laboratory results published in PubChem BioAssay AID485297 (National Center for Advancing Translational Sciences (NCATS), 2010).
About 9,100 (2.8%) of roughly 320,000 compounds were called active. Inconclusive means that the source gave no clear call. Such entries were picked first, then a sample of the others. The call rests on the fitted dose curve; in most records, active means well fitted activation curve with a large enough effect; inconclusive means small, poorly fitted or top-dose-only effect; inactive means no such curve, though single readings can be large or run the other way. Potencies of inconclusive entries are left out as doubtful fits.

Assay: qHTS Assay for Rab9 Promoter Activators; further: nearly all actives have a fitted effect of over 60% in size
Conditions: Huh7 Rab9 promoter-luciferase reporter, luminescence, 24 h; series mostly up to 9.22 µM
Summary of the method: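 Using Huh7 cells stably transfected with Rab9 promoter–luciferase, compounds were incubated 24 h at 37 °C, 5% CO2; luciferase luminescence was read 10 min after reagent addition.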
Potency means the concentration at half of the fitted maximal effect; tags describe the fitted curve by direction and shape.

| SMILES | Potency |
| --- | --- |
| Cc1cccc(NC(=O)Cc2ccc(Br)cc2)n1 | inconclusive [activator, single point] |
| Cc1cc(NCc2ccccn2)n2ncc(-c3ccccc3)c2n1 | inconclusive [activator, full curve] |
| c1ccc(-c2nc(C3CCCCC3)c3ccccc3n2)cc1 | inactive |
| Brc1ccc(C2=NC(Cc3ccccc3)CO2)cc1 (stereo unspecified) | inconclusive [activator, single point] |
| C(/C=C/c1ccccc1)=N/N1CCN(c2ccccc2)CC1 | inconclusive [activator, single point] |
| O=C(CCS(=O)(=O)c1cccs1)NC1CCCCCC1 | active: 3.55 µM |
| Cc1csc(NC(=O)c2cc(C)oc2C)n1 | inconclusive [activator, single point] |
| COc1ccc(-c2nnc(SCC(=O)Nc3ccccc3OC)o2)cc1 | active: 1.58 µM |
| Cc1cc(C)nc(NC(=S)Nc2ccccc2)n1 | inconclusive [activator, partial curve] |
| Cc1nnsc1C(=O)NNC(=O)c1ccc(C(F)(F)F)cc1 | inactive |
| CNC(=O)CCC(=O)Nc1ccc(C)cc1 | inactive |
| CCCC[n+]1ccc(-c2nc3ccc([N+](=O)[O-])cc3[nH]2)cc1 | inconclusive [activator, partial curve] |
| COc1ccccc1-c1ccc(SCc2ccccc2F)nn1 | inconclusive [activator, single point] |
| COc1ccc(NC(=O)c2c(N)cnn2C)cc1 | inactive |
| CCC(=O)Nc1c(C(=O)Nc2cccc(OC)c2)oc2ccccc12 | inconclusive [activator, single point] |
| CCS(=O)(=O)N1Cc2ccccc2CC1C(=O)Nc1ncc(C)s1 (stereo unspecified) | inconclusive [activator, partial curve] |
| CC(=O)Nc1cccc(C(=O)/C=C/c2ccc[nH]2)c1 | inconclusive [activator, single point] |
| COCCn1c(SCC(=O)N2CCc3ccccc3C2)nc2cc(Cl)ccc2c1=O | inactive |
| CC[n+]1c(/C=C/C=C2/N(C)c3ccccc3C2(C)C)sc2ccccc21 | inactive |
| CC(C)(C)S(=O)(=O)c1cnc2c(-c3ccsc3)cnn2c1N | inconclusive [activator, partial curve] |
| Cc1ccc(SCC(=O)N2CCc3ccccc32)cc1 | inconclusive [activator, partial curve] |
| CC(C)Nc1ncnc2c1cnn2-c1ccccc1 | active: 0.355 µM |
| O=C(Nc1ccc(-c2cn3c(n2)SCC3)cc1)c1ccc2c(c1)OCO2 | inconclusive [activator, single point] |
| O=C(CSc1nnc(NC(=O)c2ccc(F)cc2)s1)NC1CC1 | inconclusive [activator, partial curve] |
| O=C(NC(=S)Nc1ccccc1[N+](=O)[O-])c1ccccc1Cl | inconclusive [activator, single point] |
| Cc1ccc(NC(=O)N2CCCCCC2)c(C)c1 | inconclusive [activator, partial curve] |

| SMILES | Potency |
| --- | --- |
| Oc1sc(C=Nc2ccccc2)c2ccccc12 | inconclusive [activator, single point] |
| O=C(Nc1nc2cc3c(cc2s1)OCCO3)C1CCCCC1 | active: 0.316 µM |
| NC(=O)c1ccc(-c2noc(-c3cccc(Cl)c3)n2)cc1 | inconclusive [activator, single point] |
| CCN(CC(=O)Nc1ccc2c(c1)OCCO2)C(=O)COc1cc(C)ccc1Cl | inactive |
| Cc1ccc(OCC(=O)NNC(=S)NC(=O)c2cccs2)c(C)c1 | inactive |
| Cc1cccn2cc(-c3ccc4c(c3)NC(=O)CO4)nc12 | inconclusive [activator, single point] |
| CC(C)[C@H](NC(=O)OC(C)(C)C)c1nnc(SCC(=O)Nc2ccc(Br)cc2)o1 | inactive |
| O=C(CN1C(=O)c2ccccc2S1(=O)=O)c1ccccc1 | inconclusive [activator, partial curve] |
| CC1CCCC(C)N1C(=O)COC(=O)CCC1CCCC1 (stereo unspecified) | inactive |
| O=S(=O)(N/N=C/c1ccc2c(c1)OCO2)c1ccc(Br)cc1 | inactive |
| Cc1cc(NC(=O)CSc2nc3ccsc3c(=O)n2Cc2ccccn2)n[nH]1 | inconclusive [activator, single point] |
| Cn1ncc(Cl)c1C(=O)Nc1nc2ccc(Cl)cc2s1 | inconclusive [activator, single point] |
| CCOC(=O)c1nn(-c2ccc3c(c2)OCCO3)cc1O | active: 2.82 µM |
| CN(CC(=O)NCCc1ccccc1)S(=O)(=O)c1ccc(Br)s1 | inactive |
| O=[N+]([O-])c1nn(-c2ccccc2)n(O)c1=NCCc1ccccc1 | inconclusive [activator, single point] |
| Cc1nc(-c2ccc(C(=O)Nc3ccc(F)cc3)cc2)cs1 | inconclusive [activator, partial curve] |
| CCn1c(SCC(=O)N2CCN(C(=O)c3ccco3)CC2)nnc1C(C)C | inactive |
| COc1ccc(OC)c(Nc2ncnc3sccc23)c1 | inactive |
| CCCSc1nnc(NC(=O)c2ccco2)s1 | inconclusive [activator, single point] |
| CN(CCC#N)C(=O)c1cc2c(s1)-c1ccccc1SC2 | active: 2.51 µM |
| CC(=O)Nc1ccc(-c2cc3ccccc3o2)cc1 | active: 3.16 µM |
| O=C(NCc1ccco1)c1cc2cc(Br)ccc2o1 | inconclusive [activator, partial curve] |
| CCOC(=O)N1CCC(N2Cc3cccc(C(=O)NCc4ccc(C)cc4)c3C2=O)CC1 | inactive |
| CCOc1ccc(OCc2ccc(C(=O)N3CCCCC3)o2)cc1 | inconclusive [activator, partial curve] |
| COc1ccc(C2CC(c3cccs3)=NN2S(C)(=O)=O)cc1 (stereo unspecified) | inconclusive [activator, single point] |
